Reference: PubChem BioAssay AID488969 (Vanderbilt High Throughput Screening Facility, 2010)
In all, about 110,000 compounds were measured (“z-score”: median about -0.1, highest 2% from about 2 on). The list shows a part of the results. Activity calls are given as the source filed them.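 The calls were made as follows: active = z-score in the third read window above 3 or below -3; inactive = the rest.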

target: Metabotropic glutamate receptor 8 (Rattus norvegicus) (UniProt P70579); assay: rat mGluR8 modulators via GIRK flux, primary screen, cell-based, thallium flux, HTS (AID 488969); details: HEK293 rat mGluR8, GIRK (G protein-gated inwardly rectifying potassium channel) thallium flux, FluoZin2; at 10 µM; stronger effect = higher value; submaximal glutamate (EC20) added with thallium
Chain of UniProt P70579 (P70579 whole entry, looked up): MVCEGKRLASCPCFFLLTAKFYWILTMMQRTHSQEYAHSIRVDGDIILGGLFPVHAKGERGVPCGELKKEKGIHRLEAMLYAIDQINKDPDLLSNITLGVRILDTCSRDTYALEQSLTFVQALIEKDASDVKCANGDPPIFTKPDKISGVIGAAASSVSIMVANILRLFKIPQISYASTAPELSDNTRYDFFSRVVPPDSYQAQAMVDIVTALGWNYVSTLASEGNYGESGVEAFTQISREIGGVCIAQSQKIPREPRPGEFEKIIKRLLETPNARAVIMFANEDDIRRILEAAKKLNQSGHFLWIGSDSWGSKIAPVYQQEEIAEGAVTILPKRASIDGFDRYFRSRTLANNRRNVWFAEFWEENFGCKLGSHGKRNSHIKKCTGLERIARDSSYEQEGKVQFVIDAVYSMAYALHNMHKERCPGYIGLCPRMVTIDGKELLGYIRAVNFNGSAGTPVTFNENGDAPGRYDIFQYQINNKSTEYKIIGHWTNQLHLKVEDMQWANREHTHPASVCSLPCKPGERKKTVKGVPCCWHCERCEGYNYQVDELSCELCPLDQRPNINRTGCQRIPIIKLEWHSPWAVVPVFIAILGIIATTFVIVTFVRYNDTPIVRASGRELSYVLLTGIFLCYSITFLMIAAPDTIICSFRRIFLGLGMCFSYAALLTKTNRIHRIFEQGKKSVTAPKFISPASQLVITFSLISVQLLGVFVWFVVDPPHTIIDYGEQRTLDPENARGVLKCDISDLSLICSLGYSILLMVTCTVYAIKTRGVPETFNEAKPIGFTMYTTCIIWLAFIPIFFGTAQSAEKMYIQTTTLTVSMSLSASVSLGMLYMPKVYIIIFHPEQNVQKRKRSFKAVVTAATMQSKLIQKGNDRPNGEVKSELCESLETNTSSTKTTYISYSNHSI

Row | SMILES | z-score
1 | CCCN(Cc1cc2cc(OC)ccc2[nH]c1=O)C(=O)c1ccncc1 | -0.075
2 | N#CCSc1ccsc1C(=O)Nc1ccc(F)cc1 | 0.00201
3 | Cc1cc(C)c(C)c(S(=O)(=O)NCC(=O)O)c1C | -0.225
4 | C=CCNC(=O)C1CC(=O)N(c2ccc(OCC(=O)Nc3ccc(Cl)c(C(F)(F)F)c3)cc2)C1 (configuration not stated) | -0.135
5 | O=C(CSc1nc(Cc2ccccc2)nc2ccccc12)Nc1ccc2c(c1)OCCO2 | -1.02
6 | COC(=O)CSC1=C(C#N)C(c2ccccc2OC)C(C(=O)OC)C(=O)N1 (configuration not stated) | -0.677
7 | CCOC(=O)c1sc(NC(=O)CSc2nnc(C(C)C)n2CC)nc1C | 0.179
8 | CCC(NC(=O)/C(=C\c1ccc2c(c1)OCO2)NC(C)=O)C(=O)O (configuration not stated) | -0.0342
9 | Cc1ccc2nc(-c3ccccc3)cn2c1 | -0.4
10 | N/C(=N\OC(=O)Cc1ccccc1)c1ccc(Br)cc1 | 2.92
11 | O=C(Nc1ccc(F)cc1)c1sc(Cl)nc1-c1ccccc1 | -0.403
12 | CCOc1cccc2c1OC(c1cc(OC)c(OC)c(OC)c1)N1N=C(c3ccc(C)o3)CC21 (configuration not stated) | 0.0246
13 | O=C1OC(Nc2ccc(Cl)cn2)c2ccccc21 (configuration not stated) | -0.156
14 | CS(=O)(=O)N(CC(=O)N1CCOCC1)Cc1ccccc1 | -0.000556
15 | COc1cc(Nc2nnc(C)s2)c(Cl)cc1Cl | -0.0758
16 | N#CCN1CCN(CC(=O)Nc2cccc3ccccc23)CC1 | 1.31
17 | Cc1cccc2c1N(CCOc1ccc(C(C)(C)C)cc1)C(=O)C2=O | 0.0456
18 | CC1(C)CC(=O)C2=C(C1)OC(N)=C(C#N)C2Cc1ccccc1 (configuration not stated) | -0.029
19 | CCCCOC(=O)c1ccc(NC(=O)c2nn(C)cc2Br)cc1 | -0.112
20 | Cc1[nH]c2ccccc2c1C(c1ccccn1)c1c(C)[nH]c2ccccc12 | 0.169
21 | Cn1c(C(=O)OCC(=O)NCC2CCCO2)cc2sccc21 (configuration not stated) | 0.622
22 | COc1ccc(OC)c(-n2c(C)ccc2-c2ccc(S(C)(=O)=O)cc2)c1 | -0.248
23 | O=C(Nc1c2c(nc3c1CCC3)CCCC2)c1ccccn1 | -0.432

Row | SMILES | z-score
24 | CCCn1c(SCC(=O)N2N=C3/C(=C/c4ccc(OC)cc4)CCCC3C2c2ccc(OC)cc2)n[nH]c1=O (configuration not stated) | -0.0176
25 | CC1CCN(CC(=O)Nc2cccc([N+](=O)[O-])c2)CC1 | -0.103
26 | C/C(=C/c1oc2ccc(O)cc2c1[N+](=O)[O-])N(C)C | -0.663
27 | CCC(=O)N1CCc2cc(S(=O)(=O)NCCCN3CCN(Cc4ccccc4)CC3)ccc21 | -0.193
28 | COCCNC(=O)c1c(NC(=O)c2nc(SC)ncc2Cl)sc2c1CCCC2 | -1.69
29 | Nc1ccc2c(c1)C(=O)N(CC1CCCO1)C2=O (configuration not stated) | -0.0617
30 | COc1ccc(S(=O)(=O)N2CCn3c2nc2ccccc23)cc1 | 0.0748
31 | CCc1ccc(N=CC2=C(O)CC(c3ccco3)CC2=O)cc1 (configuration not stated) | -0.0735
32 | COc1ccc(/C=C2/C(=O)ON=C2c2ccccc2)cc1OC | -0.13
33 | Cn1c(SCC(=O)c2c(N)n(C)c(=O)n(C)c2=O)nnc1-c1ccc(F)cc1 | -0.319
34 | COc1cc2c(cc1NC(=O)COC(=O)/C=C/c1ccccc1)oc1ccccc12 | -0.0343
35 | Cc1ccccc1N(C(=O)Cc1c[nH]c2ccccc12)C(C(=O)NC1CCCCC1)c1ccco1 (configuration not stated) | -0.148
36 | CCCC(=O)Nc1cc(-c2nnc(OC)c3ccccc23)ccc1N1CCOCC1 | -0.445
37 | Cc1cc2cc(CNC(=O)Nc3ccccc3)ccc2n1C | -0.263
38 | CCOC(=O)C1=C(CSc2nncn2C)NC(=O)NC1c1cc(OCC)ccc1OCC (configuration not stated) | 0.113
39 | O=C(COC(=O)C1CC1)Nc1ccccc1Sc1ccccc1 | -0.43
40 | O=C(Nc1ccc2oc(-c3ccccc3F)nc2c1)c1cncc(Br)c1 | -0.141
41 | CCNC(=O)c1c(NC(=O)C2COc3ccccc3O2)sc2c1CCCC2 (configuration not stated) | 0.0967
42 | CCOc1cc(CNc2ccc(O)cc2)ccc1OCc1ccc(Cl)cc1Cl | -0.163
43 | O=C(CC1NC2CCCCC2NC1=O)Nc1ccc2c(c1)OCO2 (configuration not stated) | -0.312
44 | CCc1ccc(-c2csc3[n+]2CCN3C(C)=O)cc1 | 0.228
45 | C=CCN(C)CC/C=C1\c2ccccc2CSc2ccccc21 | 1.99
46 | COc1ccc(Nc2ncc(C(=O)O)c3ccccc23)cc1 | 0.188

Row | SMILES | z-score
47 | COC(=O)c1sc(OC)cc1OCc1ccc(C)cc1 | -0.492
48 | CC(=O)c1ccc(OCC(O)CN2CCOCC2)cc1 (configuration not stated) | -0.233
49 | COCCNc1nnc(SCC(=O)Nc2cc(-c3ccccc3)nn2-c2ccccc2)s1 | 0.027
50 | CCOC(=O)C(Sc1nnc(-c2ccncc2)o1)C(C)=O (configuration not stated) | -0.221
51 | O=C(Cn1cc(S(=O)(=O)Cc2ccccc2)c2ccccc21)Nc1ccccc1 | -0.33
52 | Cc1ccc(OCc2ccc(C(=O)Nc3nccs3)o2)cc1C | -0.198
53 | O=C(O)c1ccc(COCC(F)(F)C(F)F)o1 | -0.238
54 | COCCn1c(SCC(=O)c2ccc3c(c2)OCCO3)nnc1-c1ccoc1C | -0.231
55 | CCOC(=O)c1ccc(N2C(=O)CC(Nc3ccc(CCO)cc3)C2=O)cc1 (configuration not stated) | 0.208
56 | Cc1ccc(CCNC(=O)CS(=O)Cc2nc(-c3cccc(C)c3)oc2C)cc1 (configuration not stated) | -0.0168
57 | CC(C)(C)OC(=O)N[C@@H](Cc1ccccc1)C(=O)N1CCC(C(=O)O)CC1 | -0.0408
58 | CCn1c(SCc2ccc(F)cc2)nnc1C1CCN(S(=O)(=O)c2ccc(OC)cc2)CC1 | -0.188
59 | COC(=O)NNC(=O)COc1ccc(Cl)cc1 | -0.0892
60 | O=[N+]([O-])c1ccc(Sc2ccc(Cl)c(Cl)c2)nc1 | 0.061
61 | CCOC(=O)COc1cccc2c(=O)n(CC(=O)NCc3ccc4c(c3)OCO4)ccc12 | -0.524
62 | Cc1c(N2C(=O)CS/C2=N\N=C\c2ccc(Cl)cc2)c(=O)n(-c2ccccc2)n1C | -0.118
63 | Cc1cnc(C(=O)N2CCN(S(=O)(=O)c3ccc4ccccc4c3)CC2)cn1 | 0.0546
64 | CCOC(=O)C(Sc1cc(C)nc(N)n1)C(C)=O (configuration not stated) | 0.561
65 | Cc1ccc2[nH]c(=O)c(CN(Cc3ccc4c(c3)OCO4)Cc3nnnn3Cc3ccco3)cc2c1 | -0.0233
66 | O=C1OC(c2ccc(Cl)cc2)/C(=C(/O)c2ccccc2)C1=O (configuration not stated) | -1.24
67 | CCOCCCNC(=O)C1CCCCN1S(=O)(=O)c1ccc(F)cc1 (configuration not stated) | -1.05
68 | CCS(=O)CCSC(=N)N (configuration not stated) | -0.0992
69 | O=C(CSc1nnc2sc3ccccc3n12)c1ccco1 | -0.891

Row | SMILES | z-score
70 | Cc1ccc2oc(-c3ccc(NC(=O)c4ccc5c(c4)OCO5)cc3)nc2c1 | 0.485
71 | CCCc1cc(C(=O)Nc2ccccc2C(=O)OC)no1 | 0.159
72 | O=C(c1ccc(Br)cc1)N1CCCC1 | 1
73 | COc1ccc(CN2C(=O)c3ccccc3C2=O)cc1C(=O)OCC(=O)NC1CCCCC1 | -0.536
74 | COc1ccc(NC(=O)c2sccc2C)c([N+](=O)[O-])c1 | -0.01
75 | Nc1nonc1C(=O)NCCNCc1cc(Br)ccc1OCc1ccc(F)cc1 | 0.587
76 | COc1ccc(C2c3ccc4ccccc4c3Oc3ncn(Cc4ccco4)c(=N)c32)cc1OC (configuration not stated) | 0.46
77 | O=C1NC(=Nc2ccc(Cl)cc2)/C(=C/c2ccco2)S1 | -0.268
78 | CCc1nnc(SCCSc2nnc(CC)n2N)n1N | 0.577
79 | CN(C)S(=O)(=O)c1ccc(C(=O)Nc2nnc(-c3ccc4c(c3)CCCC4)o2)cc1 | active: 5.8
80 | O=C(CSCc1cccc(Br)c1)N=Nc1c(O)[nH]c2ccccc12 | -0.113
81 | O=c1cc(NCCO)c2ccccc2o1 | 0.452
82 | O=C1N=C(N2CCOCC2)CS1 | 0.577
83 | Cc1cc(CC(C)C)n(-c2nc3ccccc3c(=O)n2OCC(N)=O)n1 | active: 3.83
84 | Cc1ccc(N2CC(C(=O)NCc3cccs3)CC2=O)cc1C (configuration not stated) | 0.365
85 | CN(C)CCNC(=O)Cn1nc(C(F)F)cc1C1CC1 | 0.2
86 | CCCn1c(=O)[nH]c(=O)c2c1nc(-c1ccc(OC(F)(F)C(F)C(F)(F)F)cc1)n2CCOC (configuration not stated) | -0.639
87 | CCCC1=NN(C(=O)Cc2ccc(OC)cc2)C(O)(C(F)(F)F)C1 (configuration not stated) | -0.299
88 | C=C(C)Cn1c(NCCOC)nc2c1c(=O)[nH]c(=O)n2C | -0.0876
89 | O=S(=O)(c1ccc2ccccc2c1)N1CCN(C2Cc3ccccc3C2)CC1 | -0.346
90 | Cc1cc(=O)[nH]c(SCC(=O)Nc2ccc(Br)cc2)c1C#N | -0.679
91 | Cc1c(C(=O)NCCc2ccccc2)oc2ccc(S(=O)(=O)N3CCC4(CC3)OCCO4)cc12 | 0.735
92 | O=C(O)Cc1ccc(C(=O)c2ccccc2)s1 | -0.252

Row | SMILES | z-score
93 | CC(Nc1ccc(Cl)cc1)c1cc(Cl)ccc1O (configuration not stated) | -0.271
94 | O=C(NNC(=O)c1cccc2ccccc12)c1ccc(-c2ccccc2)cc1 | -0.146
95 | CCCCn1c(SCC(=O)Nc2nc(C)cs2)nnc1-c1cccnc1 | -1.06
96 | CCCc1cc(-n2cnc3ccccc32)n2c(nc3ccccc32)c1C#N | -0.538
97 | O=S(=O)(Nc1c(S(=O)(=O)c2ccccc2)c2nc3ccccc3nc2n1C1CCCCC1)c1ccccc1 | -1.31
98 | COc1ccc(-c2ccc(=O)n(CC(=O)Nc3ccc(C(=O)NC4CC4)cc3)n2)cc1OC | 0.564
99 | CCCC(=O)NNC(=O)Nc1ccccc1 | -0.149
100 | CN(C)c1oc(-c2ccco2)nc1C#N | 0.498
101 | Cc1ccc2cc(CCNC(=O)C(C)C)c(=O)[nH]c2c1C | 0.369
102 | CCCCCn1c(SCCc2ccccc2)nc2c1c(=O)[nH]c(=O)n2C | 0.478
103 | Cc1cccc(NC(=S)NN2CCN(C)CC2)c1C | -0.00323
104 | CC1CCN(C(=S)c2ccc(-c3ccc(Cl)cc3Cl)o2)CC1 | -0.239
105 | CCc1nc(N)c(C#N)c(-c2cccnc2)c1C | -0.116
106 | COc1cccc(Nc2nnc(SCc3cc([N+](=O)[O-])cc4c3OCOC4)s2)c1 | 1.05
107 | COC(=O)CN(C#N)c1nc(NC(C)C)nc(OC)n1 | -0.142
108 | CC(=O)c1ccc(NC2CC(O)C(O)CO2)cc1 (configuration not stated) | 2.32
109 | COC(=O)c1cc2sc(Cl)cc2n1CC(=O)Nc1ccc(OC)c(OC)c1OC | -0.254
110 | O=C(CSc1nc(-c2ccccc2Cl)ns1)Nc1ccc2c(c1)OCO2 | -0.0246
111 | CO/N=C(/CNC(=O)c1ccc(F)cc1)c1ccc(Cl)cc1 | -0.494
112 | FC(F)(F)c1cccc(N/N=C/c2ccccc2)c1 | -0.112
